About 540 (0.36%) of roughly 150,000 compounds showed an effect of 50% or more. The list shows a part of the results.
The compounds below were run on Plasmodium falciparum (assay: Primary screen in NF54 nanoGlo assay, in single point, at 2uM, 72h; a lower Z score goes with more inhibition). Conditions: timepoint 72 hour.
Type: functional, Erythrocyte
`Cc1cc(=O)[nH]c(=O)n1-c1ccc2c(c1)OCO2` was tested, and the “% Inhibition” value was -11% and the Z score was 1.81. With `CCCN1CCN(c2ncc3c(n2)CCN(Cc2ccc(OC)c(OC)c2)C3)CC1` the “% Inhibition” value was 1% and the Z score was -0.21. `Cc1noc(CNC(=O)c2cncc(Br)c2)n1` was tested, and the “% Inhibition” value was -8% and the Z score was 1.23. In the case of `Cc1ccn(Cc2nc3ccccc3s2)c(=O)c1C#N`, the “% Inhibition” value is reported as -7% and the Z score is reported as 0.66. `N=C(NCc1ccccc1)NS(=O)(=O)c1ccccc1` was tested, and the “% Inhibition” value was -7% and the Z score was 0.96. In the case of `CCCCn1cnc2c(-c3ccccc3)cn(CC(=O)N3CCN(c4ccc(F)cc4)CC3)c2c1=O`, the “% Inhibition” value is reported as 0% and the Z score is reported as 0.04. In the case of `CNC(=NCCc1ccc(Cl)s1)NC`, the “% Inhibition” value is reported as -8% and the Z score is reported as 1.06. For `c1ccc(COCc2cn([C@H]3CCN(Cc4c[nH]c5ccccc45)C3)nn2)cc1`, the “% Inhibition” value was 3% and the Z score was -0.5. `COc1ccc(N[C@@H](C)C(=O)Nc2nc(C)cs2)c(OC)c1` was tested, and the “% Inhibition” value was 36% and the Z score was -4.86. With `COCCn1cc(NC(=O)N2CC(C)C2c2ccccc2)cn1` (stereo not given) the “% Inhibition” value was 3% and the Z score was -0.3. With `Cc1cccc(CCN2C(=O)OC(C)(C)C2=O)n1` the “% Inhibition” value was 3% and the Z score was -0.42. For `O=C1CCC(N2CC[C@@H]3CCCC[C@H]3C2)CCN1Cc1ccc2ccccc2c1` (stereo not given in full), the “% Inhibition” value was -7% and the Z score was 1.3. With `Fc1ccc2c(c1)C(N1CCC3(CCOC3)C1)CC2` (stereo not given) the “% Inhibition” value was 4% and the Z score was -0.61. In the case of `CCNc1ncc(C(=O)N2Cc3ccccc3C2)cn1`, the “% Inhibition” value is reported as -5% and the Z score is reported as 0.46. `CN(C)C(=O)CN1C[C@@H](S(N)(=O)=O)Cc2ccccc21` was tested, and the “% Inhibition” value was -15% and the Z score was 1.86. In the case of `O=C(CCC1CCN(C(=O)c2csc3c2CCCC3)CC1)N1CCc2ccccc2C1`, the “% Inhibition” value is reported as 5% and the Z score is reported as -0.91. With `CC(C)Cn1cccc(C(=O)N2CCN(c3ncns3)CC2)c1=O` the “% Inhibition” value was -4% and the Z score was 0.89. In the case of `CC[C@H](C)C(=O)C(=O)N1CCn2cncc2C1`, the “% Inhibition” value is reported as -2% and the Z score is reported as 0.39. In the case of `Cc1cnc(CN(C)[C@@H](c2ccc(F)cc2)c2ncccn2)o1`, the “% Inhibition” value is reported as -14% and the Z score is reported as 1.83. For `CCNC(=O)N1CC[C@H](Oc2cccnc2N(C)C)C1`, the “% Inhibition” value was -9% and the Z score was 1.03. `COc1ccc(-c2cnn(-c3ccccn3)c2)cc1COC1CCC1` was tested, and the “% Inhibition” value was 2% and the Z score was -0.32. For `O=C(c1ccnc(/C=C/c2ccccc2)c1)N1CCOCC1`, the “% Inhibition” value was -17% and the Z score was 2.58. `CN(Cc1n[nH]c2c1CCCCC2)c1cc(C2CC(N)C2)nc(N)n1` (stereo not given) was tested, and the “% Inhibition” value was 5% and the Z score was -0.64. For `C=Cc1ccc(CN2C(=O)[C@H]3CCCC3=Nc3cc(C)c(C)cc32)cc1`, the “% Inhibition” value was -12% and the Z score was 2.22. `COc1cc2c(cc1OC)[C@H](c1ccccc1Cl)N(C(=O)c1cccc3cc[nH]c13)CC2` was tested, and the “% Inhibition” value was 7% and the Z score was -0.81. In the case of `C[C@@H]1N(c2ncccc2C(F)(F)F)CCC12CCOCC2`, the “% Inhibition” value is reported as -5% and the Z score is reported as 0.64. In the case of `CCN=C(NCc1c(C)noc1C)NCC1CCOC1C(C)(C)C` (stereo not given), the “% Inhibition” value is reported as -16% and the Z score is reported as 1.69. `CC[C@@H](CN=C(N)N(C)C)Oc1cccc(F)c1` was tested, and the “% Inhibition” value was -2% and the Z score was 0.27. For `C=CCN(C(=O)c1cc[nH]n1)c1nc2c(s1)CCCC2`, the “% Inhibition” value was -2% and the Z score was 0.24. For `Cc1cc(C)nc(NCCC(=O)NCCc2c[nH]c3ccc(F)cc23)n1`, the “% Inhibition” value was -6% and the Z score was 0.89. With `O=C(CN1CCN(Cc2ccccc2)CC1)Nc1nccs1` the “% Inhibition” value was -7% and the Z score was 0.86. In the case of `CCNC(=NCCOCc1ccccc1)NCC`, the “% Inhibition” value is reported as -3% and the Z score is reported as 0.4. `CCOc1cccc(S(=O)(=O)N(C)[C@@]2(C#N)CCOC2)c1` was tested, and the “% Inhibition” value was -2% and the Z score was 0.22. `CCCC(CCC)C(=O)N1CCC2(CC1)N[C@H](C(=O)N1CCCC1)Cc1[nH]cnc12` was tested, and the “% Inhibition” value was -6% and the Z score was 0.92. In the case of `C[C@@H]1CC(=O)N[C@H](C(=O)N2CCC(O)(C(F)F)CC2)C1`, the “% Inhibition” value is reported as 1% and the Z score is reported as -0.15. For `Cc1ccc(C)c(CN(Cc2ccccc2)Cc2nc(C(=O)NCc3cccnc3)co2)c1`, the “% Inhibition” value was -3% and the Z score was 0.26. `CCn1cc(CC(=O)NC2CCCCCC2)c2cccnc21` was tested, and the “% Inhibition” value was -4% and the Z score was 0.49. For `CN(C)[C@H]1CCCN(C(=O)CCc2cccs2)CC1`, the “% Inhibition” value was -5% and the Z score was 0.64. With `CCOc1ccccc1NC(=O)[C@H]1CCc2nc(N3CCOCC3)ncc2C1` the “% Inhibition” value was -10% and the Z score was 1.86. In the case of `CC(C)OC(=O)N(CCOC(=O)Nc1cccc(Cl)c1)CCOC(=O)Nc1cccc(Cl)c1`, the “% Inhibition” value is reported as 34% and the Z score is reported as -4.33. In the case of `Cc1nc(-c2ccc3c(c2)n(CC(=O)Nc2ccc4c(c2)OCO4)c(=O)n3C(C)C)no1`, the “% Inhibition” value is reported as -7% and the Z score is reported as 0.81. In the case of `CCn1c(N2CCC(C(=O)N3CCN(c4cccc(Cl)c4)CC3)CC2)cc(=O)n(C)c1=O`, the “% Inhibition” value is reported as -10% and the Z score is reported as 1.51. For `CCN1c2cc(C)ccc2-n2cccc2C12CCN(C(=O)Nc1ccc(C)cc1Cl)CC2`, the “% Inhibition” value was 8% and the Z score was -1.09. In the case of `CCCS(=O)(=O)c1c(S(=O)(=O)CCC)c2cc(-c3ccncc3)ccn2c1C(=O)c1ccc(OC)cc1`, the “% Inhibition” value is reported as -7% and the Z score is reported as 0.61. In the case of `Cc1cccc(CN2CCC[C@@]3(CCN(C(=O)CCOc4ccccc4)C3)C2)c1`, the “% Inhibition” value is reported as 3% and the Z score is reported as -0.52. `CC(C)n1nccc1C(=O)Nc1nnnn1C` was tested, and the “% Inhibition” value was -11% and the Z score was 2.06. For `C[C@@H](CC(=O)Nc1ccc2c(c1)OCCO2)n1cccn1`, the “% Inhibition” value was -8% and the Z score was 1.56. In the case of `Cc1ccc(Cc2ccccc2C(=O)N[C@@H]2C[C@@H](CO)N(C)C2)cc1F`, the “% Inhibition” value is reported as 0% and the Z score is reported as 0.06. For `CCCCCNC(=O)NC1(CCO)CCOCC1`, the “% Inhibition” value was -12% and the Z score was 1.32. With `COCCc1nnc(NC(=O)c2ccc(F)c(F)c2)o1` the “% Inhibition” value was -1% and the Z score was 0.13. In the case of `NS(=O)(=O)c1ccc(CNCCC(=O)Nc2nccs2)cc1`, the “% Inhibition” value is reported as -11% and the Z score is reported as 1.06. `O=C1NCCC[C@@H]1NS(=O)(=O)c1cncc(Br)c1` was tested, and the “% Inhibition” value was -7% and the Z score was 0.85. `Cc1ccc2c(Nc3ccc(F)c(Cl)c3)c(C(=O)N3CCCCCC3)cnc2n1` was tested, and the “% Inhibition” value was -11% and the Z score was 1.8. In the case of `COc1c(C)cc(C(=O)N[C@@H]2c3ccccc3C3(CCNCC3)[C@H]2O)cc1C`, the “% Inhibition” value is reported as -8% and the Z score is reported as 1.7. With `O=S(=O)(c1ccccc1)N1C2C=CCC1CC2` (stereo not given) the “% Inhibition” value was -7% and the Z score was 1.31. For `NC(=O)Cn1cc(Nc2nc3ccccc3s2)cn1`, the “% Inhibition” value was 1% and the Z score was -0.19. With `Cc1nn(C)c(C)c1CCC(=O)N1C[C@@H]2CC[C@H]1CN(c1ncccn1)C2` the “% Inhibition” value was 0% and the Z score was 0.02. `CC[C@@H](CO)NC(=O)c1cscn1` was tested, and the “% Inhibition” value was 1% and the Z score was -0.19. With `Cc1ccc(C(=O)Nc2cccc(CCc3nc4ccccc4[nH]3)c2)cc1F` the “% Inhibition” value was -11% and the Z score was 1.28. In the case of `CCC1(C)CN(C(=O)c2ccc(C(F)(F)F)nc2)C1`, the “% Inhibition” value is reported as -4% and the Z score is reported as 0.52. With `COc1ccc([C@@H](NS(=O)(=O)c2ccccc2C)C2CC(O)C2)cn1` (stereo not given in full) the “% Inhibition” value was -7% and the Z score was 1.05. With `CO[C@@H](CNS(=O)(=O)c1cnn(C)c1)c1cc2ccccc2o1` the “% Inhibition” value was -11% and the Z score was 1.88. In the case of `CC(C)(C)c1ccc(C(C)(C)C)c(NC(=O)N2CCN([C@H]3CCNC3)CC2)c1`, the “% Inhibition” value is reported as -5% and the Z score is reported as 0.72. For `O=C(Cn1cnc2nc(N3CCOCC3)sc2c1=O)N1CCN(c2ccccc2F)CC1`, the “% Inhibition” value was -2% and the Z score was 0.34. In the case of `CN(C(=O)c1ccoc1Cl)c1ccc(N2CCOCC2)nc1`, the “% Inhibition” value is reported as -10% and the Z score is reported as 1.56. With `O[C@H](COc1ccc(F)cc1)CN(Cc1ccccc1C(F)(F)F)C1CC1` the “% Inhibition” value was 14% and the Z score was -1.61. For `CC[C@H]1C(=O)NCCCN1C(=O)Cn1ccc(C(F)(F)F)n1`, the “% Inhibition” value was -10% and the Z score was 1.45. For `Cc1ccc(Cn2c(=O)c3nn(C)cc3n3c(=O)n(Cc4c(F)cccc4Cl)nc23)cc1`, the “% Inhibition” value was 3% and the Z score was -0.4. For `COc1ccc(C(=O)N[C@H]2CCOC3(CCOCC3)C2)c(C)c1`, the “% Inhibition” value was 0% and the Z score was 0.06. For `CCNC(=O)N1CC(=O)N(Cc2ccccc2)C1`, the “% Inhibition” value was -3% and the Z score was 0.25. In the case of `CC(=O)Nc1nc2ccc(NC(=O)c3cnn(C(C)(C)C)c3)cc2s1`, the “% Inhibition” value is reported as 5% and the Z score is reported as -0.7. For `CNC(=O)C[C@H](C)N(C)c1nc2c(s1)c(C)nn2C`, the “% Inhibition” value was -9% and the Z score was 1.64. `c1ccc(C[C@H]2COCC3(CCCC3)N2)cc1` was tested, and the “% Inhibition” value was -13% and the Z score was 1.8. For `CCOc1ccc(C(=O)N2CCN(c3ccncc3C)CC2)cc1OCC`, the “% Inhibition” value was -6% and the Z score was 1.09. With `OC(CN1CCCC(c2nncn2C2CC2)C1)c1ccccc1F` (stereo not given) the “% Inhibition” value was -18% and the Z score was 2.04. For `N#CC1(NC(=O)C2CC2c2ccc3c(c2)OCCO3)CCc2ccccc2C1` (stereo not given), the “% Inhibition” value was -8% and the Z score was 1.03. `O=C(NC1CCCC1)N1CC[C@H](Oc2ncc(F)cn2)C1` was tested, and the “% Inhibition” value was -9% and the Z score was 1.43. In the case of `COc1cccc(CN2CCC[C@@]3(CCN(C(=O)Cc4c(C)[nH][nH]c4=O)C3)C2)c1OC`, the “% Inhibition” value is reported as -1% and the Z score is reported as 0.15. For `COc1ccc(-c2nc3c(c(N4CCC[C@@H]4C)n2)CCOCC3)cc1`, the “% Inhibition” value was -10% and the Z score was 0.99. For `O=C(Cc1ccsc1)N1CCN(C(=O)c2nnn3c2CO[C@H](c2ccccc2)C3)CC1`, the “% Inhibition” value was -16% and the Z score was 1.42. For `CN(C(=O)C1(C2CC2)CCC1)C1CC(O)C1` (stereo not given), the “% Inhibition” value was -3% and the Z score was 0.26. In the case of `O=C(OCC(=O)N(C1CCCC1)[C@H]1CCS(=O)(=O)C1)c1ccc2n[nH]c(=O)n2c1`, the “% Inhibition” value is reported as -6% and the Z score is reported as 0.65. `COc1cc2c(cc1Cl)CN(Cc1ncnn1CCF)CC2` was tested, and the “% Inhibition” value was -14% and the Z score was 2.56. In the case of `COC(=O)C1C(O)CCCN1Cc1ncc(C)o1` (stereo not given), the “% Inhibition” value is reported as 1% and the Z score is reported as -0.17. With `CCOCCN(C)Cc1n[nH]c(C)c1C(=O)OCC` the “% Inhibition” value was 40% and the Z score was -5.74.

Source: ChEMBL document CHEMBL4888484, “Replenishing the malaria drug discovery pipeline: Screening and hit evaluation of the MMV Hit Generation Library 1 (HGL1) against asexual blood stage Plasmodium falciparum ,using a nano luciferase reporter read-out” (2022)
